# In the supplement of paper PMC8728848:
# Some of the results follow.
# B1: CV-2L (Chromobacterium violaceum), Q7NX84 (protein)
# chain: MAQQGVFTLPARINFGVTVLVNSAATQHVEIFVDNEPRAAFSGVGTGDNNLGTKVINSGSGNVRVQITANGRQSDLVSSQLVLANKLNLAVVGSEDGTDMDYNDSIVILNWPLG
# What was measured:
# Assay in all cases: glycan array binding signal (z-score within array); higher = stronger binding
# Details in all cases: glycan notation: IUPAC condensed, linker removed
# [1] = target: Gal(b1-3)[Fuc(a1-4)]GlcNAc(b1-3)Gal(b1-4)GlcNAc
# Outline: (§1)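 The binding signal is a Z-score computed within each array. Data were drawn from 3228 arrays in the Consortium for Functional Glycomics database, restricted to those with a known protein sequence. Scores were averaged over arrays of the same protein sequence at different concentrations or buffers, and over linkers, and negative values can be taken as non-binding.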
# [2] = target: Gal(b1-3)[Fuc(a1-4)]GlcNAc(b1-3)Gal(b1-4)[Fuc(a1-3)]GlcNAc
# Outline: as §1
# [3] = target: Gal(b1-3)[GlcNAc(b1-6)]GalNAc
# Outline: as §1
# [4] = target: Gal(b1-3)[Neu5Ac(a2-6)]GalNAc
# Outline: as §1
# [5] = target: Gal(b1-3)[Neu5Ac(a2-6)]GlcNAc(b1-6)Gal(b1-4)Glc
# Outline: as §1
# [6] = target: Gal(b1-3)[Neu5Ac(b2-6)]GalNAc
# Outline: as §1
# [7] = target: Gal(b1-4)Gal
# Outline: as §1
# [8] = target: Gal(b1-4)GalNAc(a1-3)[Fuc(a1-2)]Gal(b1-4)GlcNAc
# Outline: as §1
# [9] = target: Gal(b1-4)GalNAc(b1-3)[Fuc(a1-2)]Gal(b1-4)GlcNAc
# Outline: as §1
# [10] = target: Gal(b1-4)Glc
# Outline: as §1
# [11] = target: Gal(b1-4)Glc6S
# Outline: as §1
# [12] = target: Gal(b1-4)GlcNAc
# Outline: as §1
# [13] = target: Gal(b1-4)GlcNAc(a1-6)Gal(b1-4)GlcNAc
# Outline: as §1
# [14] = target: Gal(b1-4)GlcNAc(b1-2)Man
# Outline: as §1
# [15] = target: Gal(b1-4)GlcNAc(b1-2)Man(a1-3)Man(b1-4)GlcNAc(b1-4)GlcNAc
# Outline: as §1
# [16] = target: Gal(b1-4)GlcNAc(b1-2)Man(a1-3)[Gal(b1-4)GlcNAc(b1-2)Man(a1-6)]Man(b1-4)GlcNAc(b1-4)GlcNAc
# Outline: as §1
# [17] = target: Gal(b1-4)GlcNAc(b1-2)Man(a1-3)[Gal(b1-4)GlcNAc(b1-2)Man(a1-6)]Man(b1-4)GlcNAc(b1-4)[Fuc(a1-6)]GlcNAc
# Outline: as §1
# [18] = target: Gal(b1-4)GlcNAc(b1-2)Man(a1-3)[Gal(b1-4)GlcNAc(b1-2)][GlcNAc(b1-4)]Man(b1-4)GlcNAc(b1-4)GlcNAc
# Outline: as §1
# [19] = target: Gal(b1-4)GlcNAc(b1-2)Man(a1-3)[GlcNAc(b1-2)Man(a1-6)]Man(b1-4)GlcNAc(b1-4)GlcNAc
# Outline: as §1
# [20] = target: Gal(b1-4)GlcNAc(b1-2)Man(a1-3)[Man(a1-6)]Man(b1-4)GlcNAc(b1-4)GlcNAc
# Outline: as §1
# [21] = target: Gal(b1-4)GlcNAc(b1-2)Man(a1-6)Man(b1-4)GlcNAc(b1-4)GlcNAc
# Outline: as §1
# [22] = target: Gal(b1-4)GlcNAc(b1-2)Man(a1-6)[GlcNAc(b1-2)Man(a1-3)]Man(b1-4)GlcNAc(b1-4)GlcNAc
# Outline: as §1
# [23] = target: Gal(b1-4)GlcNAc(b1-2)Man(a1-6)[Man(a1-3)]Man(b1-4)GlcNAc(b1-4)GlcNAc
# Outline: as §1
# [24] = target: Gal(b1-4)GlcNAc(b1-2)[Gal(b1-4)GlcNAc(b1-4)]Man(a1-3)[Gal(b1-4)GlcNAc(b1-2)Man(a1-6)]Man(b1-4)GlcNAc(b1-4)GlcNAc
# Outline: as §1
# [25] = target: Gal(b1-4)GlcNAc(b1-2)[Gal(b1-4)GlcNAc(b1-4)]Man(a1-3)[Gal(b1-4)GlcNAc(b1-2)[Gal(b1-4)GlcNAc(b1-6)]Man(a1-6)]Man(b1-4)GlcNAc(b1-4)GlcNAc
# Outline: as §1
# [26] = target: Gal(b1-4)GlcNAc(b1-2)[Gal(b1-4)GlcNAc(b1-4)]Man(a1-3)[GlcNAc(b1-4)][Gal(b1-4)GlcNAc(b1-2)Man(a1-6)]Man(b1-4)GlcNAc(b1-4)GlcNAc
# Outline: as §1
# [27] = target: Gal(b1-4)GlcNAc(b1-2)[Gal(b1-4)GlcNAc(b1-4)]Man(a1-3)[GlcNAc(b1-4)][Gal(b1-4)GlcNAc(b1-2)[Gal(b1-4)GlcNAc(b1-6)]Man(a1-6)]Man(b1-4)GlcNAc(b1-4)GlcNAc
# Outline: as §1
# [28] = target: Gal(b1-4)GlcNAc(b1-2)[Gal(b1-4)GlcNAc(b1-6)]Man(a1-6)[Gal(b1-4)GlcNAc(b1-2)Man(a1-3)]Man(b1-4)GlcNAc(b1-4)GlcNAc
# Outline: as §1
# [29] = target: Gal(b1-4)GlcNAc(b1-2)[Gal(b1-4)GlcNAc(b1-6)]Man(a1-6)[GlcNAc(b1-4)][Gal(b1-4)GlcNAc(b1-2)Man(a1-3)]Man(b1-4)GlcNAc(b1-4)GlcNAc
# Outline: as §1
# [30] = target: Gal(b1-4)GlcNAc(b1-3)Gal(b1-3)GlcNAc
# Outline: as §1
# [31] = target: Gal(b1-4)GlcNAc(b1-3)Gal(b1-4)Glc
# Outline: as §1
# [32] = target: Gal(b1-4)GlcNAc(b1-3)Gal(b1-4)GlcNAc
# Outline: as §1
# [33] = target: Gal(b1-4)GlcNAc(b1-3)Gal(b1-4)GlcNAc(b1-3)Gal(b1-4)GlcNAc
# Outline: as §1
# [34] = target: Gal(b1-4)GlcNAc(b1-3)Gal(b1-4)[Fuc(a1-3)GlcNAc(b1-6)]Gal(b1-4)Glc
# Outline: as §1
# [35] = target: Gal(b1-4)GlcNAc(b1-3)Gal(b1-4)[Fuc(a1-3)]GlcNAc(b1-3)Gal(b1-4)[Fuc(a1-3)]GlcNAc
# Outline: as §1
# [36] = target: Gal(b1-4)GlcNAc(b1-3)GalNAc
# Outline: as §1
# [37] = target: Gal(b1-4)GlcNAc(b1-3)[Gal(b1-4)GlcNAc(b1-6)]Gal(b1-4)GlcNAc
# Outline: as §1
# [38] = target: Gal(b1-4)GlcNAc(b1-3)[Gal(b1-4)GlcNAc(b1-6)]GalNAc
# Outline: as §1
# [39] = target: Gal(b1-4)GlcNAc(b1-3)[GlcNAc(b1-6)]Gal(b1-4)GlcNAc
# Outline: as §1
# [40] = target: Gal(b1-4)GlcNAc(b1-6)Gal(b1-4)GlcNAc
# Outline: as §1
# [41] = target: Gal(b1-4)GlcNAc(b1-6)GalNAc
# Outline: as §1
# [42] = target: Gal(b1-4)GlcNAc(b1-6)[Gal(b1-3)]GalNAc
# Outline: as §1
# [43] = target: Gal(b1-6)Gal
# Outline: as §1
# [44] = target: Gal3S(b1-3)GalNAc
# Outline: as §1
# [45] = target: Gal3S(b1-3)GlcNAc
# Outline: as §1
binder,measurement,setting,value
B1,glycan array binding signal (z-score),[1],-0.088
same,glycan array binding signal (z-score),[2],0.831
same,glycan array binding signal (z-score),[3],-0.343
same,glycan array binding signal (z-score),[4],-0.348
same,glycan array binding signal (z-score),[5],-0.344
same,glycan array binding signal (z-score),[6],-0.351
same,glycan array binding signal (z-score),[7],-0.346
same,glycan array binding signal (z-score),[8],-0.341
same,glycan array binding signal (z-score),[9],-0.325
same,glycan array binding signal (z-score),[10],-0.349
same,glycan array binding signal (z-score),[11],-0.349
same,glycan array binding signal (z-score),[12],-0.339
same,glycan array binding signal (z-score),[13],-0.341
same,glycan array binding signal (z-score),[14],-0.34
same,glycan array binding signal (z-score),[15],-0.314
same,glycan array binding signal (z-score),[16],-0.346
same,glycan array binding signal (z-score),[17],-0.275
same,glycan array binding signal (z-score),[18],-0.35
same,glycan array binding signal (z-score),[19],-0.323
same,glycan array binding signal (z-score),[20],-0.185
same,glycan array binding signal (z-score),[21],-0.342
same,glycan array binding signal (z-score),[22],-0.342
same,glycan array binding signal (z-score),[23],0.208
same,glycan array binding signal (z-score),[24],-0.29
same,glycan array binding signal (z-score),[25],-0.302
same,glycan array binding signal (z-score),[26],-0.362
same,glycan array binding signal (z-score),[27],-0.334
same,glycan array binding signal (z-score),[28],-0.307
same,glycan array binding signal (z-score),[29],-0.316
same,glycan array binding signal (z-score),[30],-0.343
same,glycan array binding signal (z-score),[31],-0.265
same,glycan array binding signal (z-score),[32],-0.352
same,glycan array binding signal (z-score),[33],-0.346
same,glycan array binding signal (z-score),[34],-0.318
same,glycan array binding signal (z-score),[35],-0.258
same,glycan array binding signal (z-score),[36],-0.342
same,glycan array binding signal (z-score),[37],-0.33
same,glycan array binding signal (z-score),[38],-0.347
same,glycan array binding signal (z-score),[39],-0.339
same,glycan array binding signal (z-score),[40],-0.347
same,glycan array binding signal (z-score),[41],-0.149
same,glycan array binding signal (z-score),[42],-0.341
same,glycan array binding signal (z-score),[43],-0.345
same,glycan array binding signal (z-score),[44],-0.352
same,glycan array binding signal (z-score),[45],-0.33
